Measurements published in PubChem BioAssay AID504333 (National Center for Advancing Translational Sciences (NCATS), 2011).
In all, about 360,000 compounds went through this assay and about 16,000 (4.4%) were called active. The shares of active, inactive and inconclusive entries below differ from those in the screen. Calls come from the whole dose curve; as a rule, active = well fitted inhibition curve with a large enough effect; inconclusive = small, poorly fitted or top-dose-only effect; inactive = no such curve, though single readings can be large or run the other way. A potency beside an inconclusive call is a rough fit, not a confirmed value.

target: Bromodomain adjacent to zinc finger domain protein 2B (Homo sapiens) (UniProt Q9UIF8); test: qHTS Assay for Inhibitors of BAZ2B; details: AlphaScreen BAZ2B-H3K14Ac peptide displacement; activity change, negative = inhibition: at 114 µM (top of the series); note: nearly all actives have a fitted effect of over 60% in size
Outline: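 Protein-peptide AlphaScreen: BAZ2B 50 nM, b-H3K14Ac 50 nM, 1x PBS pH 7.4 + 0.01% Tween-20. Preincubation 30 min RT; cpd 30 min RT (top 110 uM); beads 20 min RT, light-protected.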
% is set by controls: 0 for no effect and ±100 for the full control effect; potency is the fitted concentration of half-maximal effect; tags give direction and shape of the fitted curve.

Chain of UniProt Q9UIF8 (Q9UIF8 whole entry, looked up, the tested form may be a part): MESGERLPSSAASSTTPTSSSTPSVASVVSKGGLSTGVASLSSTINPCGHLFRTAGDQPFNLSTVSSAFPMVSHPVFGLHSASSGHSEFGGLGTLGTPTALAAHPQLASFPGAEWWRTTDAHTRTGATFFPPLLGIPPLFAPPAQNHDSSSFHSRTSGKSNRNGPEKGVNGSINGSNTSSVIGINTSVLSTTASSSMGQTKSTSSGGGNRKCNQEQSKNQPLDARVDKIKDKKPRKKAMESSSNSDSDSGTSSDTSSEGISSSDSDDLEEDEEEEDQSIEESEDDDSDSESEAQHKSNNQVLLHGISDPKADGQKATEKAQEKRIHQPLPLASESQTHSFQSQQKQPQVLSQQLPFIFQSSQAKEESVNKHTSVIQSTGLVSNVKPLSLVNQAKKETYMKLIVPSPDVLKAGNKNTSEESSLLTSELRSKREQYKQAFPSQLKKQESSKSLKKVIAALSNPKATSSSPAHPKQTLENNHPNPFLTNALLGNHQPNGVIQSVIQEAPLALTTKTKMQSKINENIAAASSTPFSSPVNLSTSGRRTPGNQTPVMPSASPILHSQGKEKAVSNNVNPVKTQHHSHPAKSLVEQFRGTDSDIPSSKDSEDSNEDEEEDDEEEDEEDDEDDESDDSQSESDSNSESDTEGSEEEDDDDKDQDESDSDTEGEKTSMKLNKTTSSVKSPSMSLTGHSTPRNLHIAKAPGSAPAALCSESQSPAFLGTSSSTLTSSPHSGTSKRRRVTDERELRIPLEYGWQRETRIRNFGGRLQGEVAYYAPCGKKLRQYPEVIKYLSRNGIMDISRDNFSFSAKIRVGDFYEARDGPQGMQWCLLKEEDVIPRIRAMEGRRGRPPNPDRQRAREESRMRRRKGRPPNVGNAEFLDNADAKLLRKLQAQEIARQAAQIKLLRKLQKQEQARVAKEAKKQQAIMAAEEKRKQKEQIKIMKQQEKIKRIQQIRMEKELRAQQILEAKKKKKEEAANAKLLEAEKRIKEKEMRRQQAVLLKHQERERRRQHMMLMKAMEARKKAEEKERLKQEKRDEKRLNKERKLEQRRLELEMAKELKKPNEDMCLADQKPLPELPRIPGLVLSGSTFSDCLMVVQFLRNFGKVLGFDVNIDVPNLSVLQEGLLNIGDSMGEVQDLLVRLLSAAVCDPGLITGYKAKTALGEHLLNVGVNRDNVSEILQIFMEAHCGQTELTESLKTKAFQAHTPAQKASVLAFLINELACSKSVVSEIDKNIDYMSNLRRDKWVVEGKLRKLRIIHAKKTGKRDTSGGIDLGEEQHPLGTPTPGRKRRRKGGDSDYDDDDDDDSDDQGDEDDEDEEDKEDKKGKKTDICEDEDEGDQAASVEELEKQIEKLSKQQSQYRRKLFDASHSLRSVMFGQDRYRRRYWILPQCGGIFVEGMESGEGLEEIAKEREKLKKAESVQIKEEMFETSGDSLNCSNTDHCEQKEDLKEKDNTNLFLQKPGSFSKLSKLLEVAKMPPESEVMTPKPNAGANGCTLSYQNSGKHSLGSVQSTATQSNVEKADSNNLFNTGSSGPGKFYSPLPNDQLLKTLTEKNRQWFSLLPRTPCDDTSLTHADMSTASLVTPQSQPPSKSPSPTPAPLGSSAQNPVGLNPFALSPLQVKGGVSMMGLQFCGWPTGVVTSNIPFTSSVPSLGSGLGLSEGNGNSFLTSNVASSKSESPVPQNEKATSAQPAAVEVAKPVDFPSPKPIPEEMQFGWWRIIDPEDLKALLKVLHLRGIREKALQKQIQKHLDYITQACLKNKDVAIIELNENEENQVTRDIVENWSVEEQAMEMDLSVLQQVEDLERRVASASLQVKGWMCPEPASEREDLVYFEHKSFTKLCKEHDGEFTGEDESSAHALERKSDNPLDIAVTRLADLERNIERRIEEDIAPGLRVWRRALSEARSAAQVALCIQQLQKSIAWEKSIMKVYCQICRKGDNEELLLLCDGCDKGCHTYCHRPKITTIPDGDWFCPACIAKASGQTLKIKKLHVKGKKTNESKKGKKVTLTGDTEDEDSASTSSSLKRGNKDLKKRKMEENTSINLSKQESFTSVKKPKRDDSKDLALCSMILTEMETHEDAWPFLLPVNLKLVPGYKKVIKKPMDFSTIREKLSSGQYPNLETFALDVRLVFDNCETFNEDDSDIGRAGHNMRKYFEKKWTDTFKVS

Structure (SMILES)	Potency	activity change, negative = inhibition
CCOc1ccc(/C=N/NC(=O)c2[nH]c3ccc(C)cc3c2C)cc1	inconclusive: 79.4 µM [inhibitor, single point]	–
CCN(CC)S(=O)(=O)c1cccc(-c2cn3cccnc3n2)c1	–	inactive: 0.32%
COc1ccc(Br)cc1CNC(=O)CN1C(=O)C(c2ccccc2)Oc2cccnc21 (configuration not stated)	active: 50.1 µM	–
COC(=O)c1cc(C(=O)NCC2CCCCC2)cc([N+](=O)[O-])c1	–	inactive: -3.62%
S=C(NCc1ccccn1)Nc1cccc(Cl)c1	–	inactive: -2.6%
CN(C)CCN(Cc1ccco1)C(=O)c1oc2ccccc2c1NC(=O)COc1ccccc1	inconclusive: 50.1 µM [inhibitor, partial curve]	–
C#CCOCCOCCOCCNc1nc(N2CCN(C(=O)[C@H](Cc3ccc(O)cc3)n3cc([C@@H](N)CC(C)C)nn3)CC2)nc(N2CCN(C(=O)[C@H](Cc3ccc(O)cc3)n3cc([C@@H](N)CC(C)C)nn3)CC2)n1	active: 50.1 µM	–
COc1ccc(OC)c(-c2csc(NC(=O)C3=COCCO3)n2)c1	inconclusive: 50.1 µM [inhibitor, partial curve]	–
CC(C)NC(=S)N1CCN(C/C=C/c2ccccc2)CC1	–	inactive: -19.1%
COc1ccc(NC(C)C(=O)N/N=C/c2ccccc2OCc2cccc(Br)c2)cc1 (configuration not stated)	active: 10 µM	–
CC1(C)Cc2c(sc(NC(=O)C(=O)N3CCCC3)c2C#N)CO1	–	inactive: -32.8%
Cc1ccc(C(=O)N2C(CC(=O)Nc3ccc(Cl)cc3)C(=O)NC3CCCCC32)cc1 (configuration not stated)	inconclusive: 89.1 µM [inhibitor, single point]	–
OCCN(Cc1ccccc1)CC1CCCCC1	inconclusive: 89.1 µM [inhibitor, single point]	–
Cc1cc(C2C(C#N)=C(N)Oc3n[nH]c(C)c32)c(C)s1 (configuration not stated)	inconclusive: 89.1 µM [inhibitor, single point]	–
CC(C)C(=O)O/N=C(\N)c1ccc(Oc2ccc(Cl)cc2)c([N+](=O)[O-])c1	inconclusive: 79.4 µM [inhibitor, single point]	–
COCCNC(=O)CCn1nc(-c2ccc(Cl)cc2)ccc1=O	inconclusive: 89.1 µM [inhibitor, single point]	–
COc1ccc(/C=C2\Sc3ccc(C(=O)NC4CC4)cc3N(C)C2=O)cc1OC	inconclusive: 79.4 µM [inhibitor, partial curve]	–
Cc1c(NC(=O)CSc2nnc(C(C)Oc3ccc(Cl)cc3)n2-c2ccccc2)c(=O)n(-c2ccccc2)n1C (configuration not stated)	inconclusive: 100 µM [inhibitor, single point]	–
C=CCNC(=O)CN(Cc1ccccc1)S(=O)(=O)c1ccccc1	inconclusive: 89.1 µM [inhibitor, single point]	–
O=c1c(-c2ccc(Cl)cc2)[n+]([O-])c2ccccc2n1O	inconclusive: 89.1 µM [inhibitor, single point]	–
COc1cccc(/C=C/C(=O)Nc2ccc3c(c2)OCCO3)c1OC	inconclusive: 70.8 µM [inhibitor, single point]	–
O=C(Nc1ccc(N2CCCC2)cc1)c1ccc(Br)o1	inconclusive: 50.1 µM [inhibitor, partial curve]	–
O=C1OC(/C=C/c2ccccc2)=NC/1=C/C=C/c1ccccc1	inconclusive: 89.1 µM [inhibitor, single point]	–

Structure (SMILES)	Potency	activity change, negative = inhibition
Cc1cccc(-c2c3c(=O)n(C)c(=O)n(C)c3cn2-c2cc(N)c(Cl)cc2Cl)c1	inconclusive: 39.8 µM [inhibitor, partial curve]	–
C=CCC1NS(=O)(=O)OCC1C(C)C (configuration not stated)	inconclusive: 70.8 µM [inhibitor, single point]	–
Cc1c(C(=O)NCCSCc2ccccc2)cccc1[N+](=O)[O-]	inconclusive: 89.1 µM [inhibitor, single point]	–
O=C(N/N=C/c1ccccn1)c1ccc2nc[nH]c2c1	inconclusive: 89.1 µM [inhibitor, single point]	–
CCOC(=O)c1c(-c2ccccc2)csc1NC(=O)c1nc(S(=O)(=O)CC)ncc1Cl	inconclusive: 6.31 µM [inhibitor, full curve, poor fit]	–
COc1cccc(-c2c(NC(C)=O)n(C)c3ccccc3c2=O)c1	inconclusive: 89.1 µM [inhibitor, single point]	–
O=C(CSc1nc(-c2ccccc2)cs1)Nc1nccs1	inconclusive: 89.1 µM [inhibitor, single point]	–
C/C(=C\c1ccco1)C1C(C#N)=C(N)OC2=C1C(=O)CC(C)(C)C2 (configuration not stated)	inconclusive: 39.8 µM [inhibitor, full curve, poor fit]	–
CCCCn1c(NC(=S)Nc2ccccc2)nc2ccccc21	active: 7.94 µM	–
Cc1oc(-c2cccc3ccccc23)nc1CN1CCN(c2ncnc3ccccc23)CC1	inconclusive: 39.8 µM [inhibitor, partial curve]	–
CCc1ccc(NC(=O)c2ccc(-n3cncn3)c([N+](=O)[O-])c2)cc1	–	inactive: -30.5%
CN(C)CCCNC(=O)c1cc(C(=O)c2ccccc2)c[nH]1	–	inactive: 0.113%
CC(C)Cc1ccc(CN2CCCC(NC(=O)c3nn(C)c(=O)c4ccccc34)C2)cc1 (configuration not stated)	inconclusive: 39.8 µM [inhibitor, partial curve]	–
CCN(CC)S(=O)(=O)c1cc(OC)ccc1N=Nc1ccc(O)c2ncccc12	active: 20 µM	–
Cc1cc(-c2ccc(C)c(S(=O)(=O)N(C)c3ccc(C)c(C)c3)c2)on1	–	inactive: 20.1%
COc1cc(/C=C2\S/C(=N/S(=O)(=O)c3ccccc3)NC2=O)c([N+](=O)[O-])cc1OC	–	inactive: -29.6%
Cc1ccc(S(=O)(=O)N2CCOCC2)cc1NC(=O)CN1CCN(c2ccc(O)cc2)CC1	inconclusive: 89.1 µM [inhibitor, single point]	–
CCOC(=O)c1c(Oc2ccc(OC)cc2)nnc(-c2ccccc2)c1-c1ccccc1	–	inactive: -12.6%
S=c1[nH]nc(-c2ccncc2)n1/N=C/c1cccc2ccccc12	–	inactive: -6.53%
O=c1cc(-c2ccccc2)c2cc(Cl)c3c(c2o1)CN(Cc1ccccc1)CO3	–	inactive: -0.878%
O=C(COC(=O)c1cc(S(=O)(=O)N2CCCCC2)ccc1Cl)NCc1ccco1	inconclusive: 50.1 µM [inhibitor, partial curve]	–
CCC(C)c1ccc2oc(-c3ccc(NC(=O)c4ncn[nH]4)cc3)nc2c1 (configuration not stated)	inconclusive: 79.4 µM [inhibitor, single point]	–
COc1ccccc1NS(=O)(=O)c1cc(NC(=O)c2cccs2)ccc1N1CCCCC1	–	inactive: -20.7%

Structure (SMILES)	Potency	activity change, negative = inhibition
C1CCCN(c2nc3nonc3nc2N2CCCCCC2)CC1	inconclusive: 89.1 µM [inhibitor, single point]	–
CC(C)CCOc1ccc(C(=O)C[N+]2(C)CCOCC2)cc1	inconclusive: 89.1 µM [inhibitor, single point]	–
Cn1cc(SCC(=O)N2CCN(c3ccccc3)CC2)c2ccccc21	inconclusive: 89.1 µM [inhibitor, single point]	–
CC1=CC(c2ccc(Cl)cc2)n2nc(NC(=O)CCCC(=O)O)nc2N1 (configuration not stated)	inconclusive: 79.4 µM [inhibitor, single point]	–
CCN1C(=O)NC(c2cccnc2)C(C(=O)OC)=C1C (configuration not stated)	inconclusive: 3.16 µM [inhibitor, single point]	–
O=C(CNC(=O)c1nc[nH]c1C(=O)N1CCNCC1)OCc1ccccc1	active: 50.1 µM	–
CCCCOc1ccc(Nc2cc(Cl)ccc2C(=O)O)cn1	active: 70.8 µM	–
O=C1CSC(=S)N1/N=C/c1ccc2c(c1)OCCO2	inconclusive: 39.8 µM [inhibitor, full curve]	–
CCCNC(=O)CCC(=O)Nc1ncc(-c2ccc(C)cc2)n1C	inconclusive: 79.4 µM [inhibitor, partial curve]	–
C#CCOCCOCCOCCNc1nc(N2CCOCC2)nc(N2CCN(C(=O)CCCCCCCCCCNC(=O)[C@@H]([C@H](C)O)n3cc(C)nn3)CC2)n1	inconclusive: 79.4 µM [inhibitor, single point]	–
Cc1ccc(NCc2ccccc2-c2nnc(-c3ccccc3Cl)o2)c(C)c1	inconclusive: 35.5 µM [inhibitor, partial curve]	–
O=C(Nc1ccc2c(c1)OCO2)c1ccccn1	inconclusive: 89.1 µM [inhibitor, single point]	–
CCCn1c(=O)c(-c2ccccc2)c(O)c2ccccc21	inconclusive: 100 µM [inhibitor, single point]	–
COc1ccc(-c2nnc3c4ccccc4c(C)nn23)cc1S(=O)(=O)N1CCN(CCO)CC1	–	inactive: -6.33%
COC(=O)c1ccc(NC(=O)CCn2cccc2)cc1	inconclusive: 70.8 µM [inhibitor, single point]	–
C=CCN(CC=C)S(=O)(=O)c1ccc(NC(=S)NC(=O)/C=C/c2cccc3ccccc23)cc1	inconclusive: 2.82 µM [inhibitor, partial curve, poor fit]	–
COc1ccc(CN(Cc2cccn2C)S(=O)(=O)c2ccccc2)cc1	inconclusive: 35.5 µM [inhibitor, full curve]	–
O=S(=O)(Nc1cc(Sc2cccc3cccnc23)c(O)c2ccccc12)c1ccccc1	inconclusive: 35.5 µM [inhibitor, full curve]	–
CCn1c(SCC(=O)N/N=C/C(C)=C/c2ccco2)nnc1-c1ccccc1	inconclusive: 79.4 µM [inhibitor, single point]	–
CC(C)(CNc1ccc(C(F)(F)F)cc1[N+](=O)[O-])N1CCOCC1	inconclusive: 35.5 µM [inhibitor, partial curve]	–
Nc1nc(-c2ccc3c(c2)NC(=O)CO3)cs1	inconclusive: 89.1 µM [inhibitor, single point]	–
